Source: patent publication US11434289B2, “Anti-GPR20 antibody and anti-GPR20 antibody-drug conjugate” (DAIICHI SANKYO COMPANY, LIMITED, priority 2017, dated 2022)

T1: human GPR20 (Homo sapiens, UniProt Q99678)
T1 construct: expressed in transfected cells; host or cells: 293T cells, transient, Lipofectamine 2000
T1 sequence (Q99678 1-358): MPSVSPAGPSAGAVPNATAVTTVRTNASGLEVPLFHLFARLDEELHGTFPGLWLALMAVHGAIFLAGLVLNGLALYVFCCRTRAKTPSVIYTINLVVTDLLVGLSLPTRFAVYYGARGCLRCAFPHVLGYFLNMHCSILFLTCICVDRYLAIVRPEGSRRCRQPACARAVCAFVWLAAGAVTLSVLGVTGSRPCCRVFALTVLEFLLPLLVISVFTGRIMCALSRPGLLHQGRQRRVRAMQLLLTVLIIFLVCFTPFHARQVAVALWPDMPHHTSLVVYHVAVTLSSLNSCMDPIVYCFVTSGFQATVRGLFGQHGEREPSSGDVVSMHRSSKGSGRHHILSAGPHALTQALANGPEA

B1: h046-H5b/L2: humanized h046-H5b type heavy chain and humanized h046-L2 type light chain (antibody)
heavy: QVQLVQSGAEVKKPGASVKVSCKASGYTFTSYYISWIRQAPGQGLKYMGFINPGSGHTNYNEKFKGRVTITADKSSSTANMELSSLRSEDTAVYYCARGAGGFLRIITKFDYWGQGTLVTVSSASTKGPSVFPLAPSSKSTSGGTAALGCLVKDYFPEPVTVSWNSGALTSGVHTFPAVLQSSGLYSLSSVVTVPSSSLGTQTYICNVNHKPSNTKVDKRV[letters of human IgG1 Fc omitted]
light: DIQMTQSPSSLSASVGDRVTITCRASKSVSTYIHWYQQKPGKQPKLLIYSASNLESGVPSRFSGSGSGTDFTLTISSLQPEDFATYYCQQINELPYTFGQGTKVEIKRTVAAPSVFIFPPSDEQLKSGTASVVCLLNNFYPREAKVQWKVDNALQSGNSQESVTEQDSKDSTYSLSSTLTLSKADYEKHKVYACEVTHQGLSSPVTKSFNRGEC
B2: h046-Hwt/L6: human chimeric c046 heavy chain and humanized h046-L6 type light chain (antibody)
heavy: QVQLQQSGAELAKPGSSVKISCKASGYTFTSYYISWIKQTTGQGLKYIGFINPGSGHTNYNEKFKGKATLTVDKSSSTAFMQLSSLTPDDSAIYYCARGAGGFLRIITKFDYWGQGVMVTVSSASTKGPSVFPLAPSSKSTSGGTAALGCLVKDYFPEPVTVSWNSGALTSGVHTFPAVLQSSGLYSLSSVVTVPSSSLGTQTYICNVNHKPSNTKVDKRV[letters of human IgG1 Fc omitted]
light: DTQLTQSPSSLSASVGDRVTITCRASKSVSTYIHWYQQKPGKQPKLLIYSASDRESGVPSRFSGSGSGTDFTLTISSLQPEDFANYYCQQINELPYTFGQGTKVEIKRTVAAPSVFIFPPSDEQLKSGTASVVCLLNNFYPREAKVQWKVDNALQSGNSQESVTEQDSKDSTYSLSSTLTLSKADYEKHKVYACEVTHQGLSSPVTKSFNRGEC
B3: h046-H10/L6: humanized h046-H10 type heavy chain and humanized h046-L6 type light chain (antibody)
heavy: QVQLQQSGAELAKPGSSVKVSCKASGYTFTSYYISWIKQTTGQGLKYIGFINPGSGHTNYNEKFKGKATLTVDKSSSTANMQLSSLTPDDSAIYYCARGAGGFLRIITKFDYWGQGVMVTVSSASTKGPSVFPLAPSSKSTSGGTAALGCLVKDYFPEPVTVSWNSGALTSGVHTFPAVLQSSGLYSLSSVVTVPSSSLGTQTYICNVNHKPSNTKVDKRV[letters of human IgG1 Fc omitted]
light: DTQLTQSPSSLSASVGDRVTITCRASKSVSTYIHWYQQKPGKQPKLLIYSASDRESGVPSRFSGSGSGTDFTLTISSLQPEDFANYYCQQINELPYTFGQGTKVEIKRTVAAPSVFIFPPSDEQLKSGTASVVCLLNNFYPREAKVQWKVDNALQSGNSQESVTEQDSKDSTYSLSSTLTLSKADYEKHKVYACEVTHQGLSSPVTKSFNRGEC
B4: antibody-drug conjugate (12): antibody-drug conjugate produced from h046-H10/L6; n 8.0 by common procedure F (conjugate)
heavy: QVQLQQSGAELAKPGSSVKVSCKASGYTFTSYYISWIKQTTGQGLKYIGFINPGSGHTNYNEKFKGKATLTVDKSSSTANMQLSSLTPDDSAIYYCARGAGGFLRIITKFDYWGQGVMVTVSSASTKGPSVFPLAPSSKSTSGGTAALGCLVKDYFPEPVTVSWNSGALTSGVHTFPAVLQSSGLYSLSSVVTVPSSSLGTQTYICNVNHKPSNTKVDKRV[letters of human IgG1 Fc omitted]
light: DTQLTQSPSSLSASVGDRVTITCRASKSVSTYIHWYQQKPGKQPKLLIYSASDRESGVPSRFSGSGSGTDFTLTISSLQPEDFANYYCQQINELPYTFGQGTKVEIKRTVAAPSVFIFPPSDEQLKSGTASVVCLLNNFYPREAKVQWKVDNALQSGNSQESVTEQDSKDSTYSLSSTLTLSKADYEKHKVYACEVTHQGLSSPVTKSFNRGEC
B5: antibody-drug conjugate (3): antibody-drug conjugate produced from h046-H4b/L7; n 7.8 by common procedure F (conjugate)
heavy: QVQLVQSGAEVKKPGASVKVSCKASGYTFTSYYISWIRQAPGQGLKYMGFINPGSGHTNYNEKFKGRVTITADKSSSTATMELSSLRSEDTAVYYCARGAGGFLRIITKFDYWGQGTLVTVSSASTKGPSVFPLAPSSKSTSGGTAALGCLVKDYFPEPVTVSWNSGALTSGVHTFPAVLQSSGLYSLSSVVTVPSSSLGTQTYICNVNHKPSNTKVDKRV[letters of human IgG1 Fc omitted]
light: DTQLTQSPSSLSASVGDRVTITCRASKSVSTYIHWYQQKPGKQPKLLIYSAGNLESGVPSRFSGSGSGTDFTLTISSLQPEDFANYYCQQINELPYTFGQGTKVEIKRTVAAPSVFIFPPSDEQLKSGTASVVCLLNNFYPREAKVQWKVDNALQSGNSQESVTEQDSKDSTYSLSSTLTLSKADYEKHKVYACEVTHQGLSSPVTKSFNRGEC
B6: antibody-drug conjugate (5): antibody-drug conjugate produced from h046-H5b/L2; n 7.9 by common procedure F (conjugate)
heavy: QVQLVQSGAEVKKPGASVKVSCKASGYTFTSYYISWIRQAPGQGLKYMGFINPGSGHTNYNEKFKGRVTITADKSSSTANMELSSLRSEDTAVYYCARGAGGFLRIITKFDYWGQGTLVTVSSASTKGPSVFPLAPSSKSTSGGTAALGCLVKDYFPEPVTVSWNSGALTSGVHTFPAVLQSSGLYSLSSVVTVPSSSLGTQTYICNVNHKPSNTKVDKRV[letters of human IgG1 Fc omitted]
light: DIQMTQSPSSLSASVGDRVTITCRASKSVSTYIHWYQQKPGKQPKLLIYSASNLESGVPSRFSGSGSGTDFTLTISSLQPEDFATYYCQQINELPYTFGQGTKVEIKRTVAAPSVFIFPPSDEQLKSGTASVVCLLNNFYPREAKVQWKVDNALQSGNSQESVTEQDSKDSTYSLSSTLTLSKADYEKHKVYACEVTHQGLSSPVTKSFNRGEC
B7: antibody-drug conjugate (6): antibody-drug conjugate produced from h046-Hwt/L6; n 7.8 by common procedure F (conjugate)
heavy: QVQLQQSGAELAKPGSSVKISCKASGYTFTSYYISWIKQTTGQGLKYIGFINPGSGHTNYNEKFKGKATLTVDKSSSTAFMQLSSLTPDDSAIYYCARGAGGFLRIITKFDYWGQGVMVTVSSASTKGPSVFPLAPSSKSTSGGTAALGCLVKDYFPEPVTVSWNSGALTSGVHTFPAVLQSSGLYSLSSVVTVPSSSLGTQTYICNVNHKPSNTKVDKRV[letters of human IgG1 Fc omitted]
light: DTQLTQSPSSLSASVGDRVTITCRASKSVSTYIHWYQQKPGKQPKLLIYSASDRESGVPSRFSGSGSGTDFTLTISSLQPEDFANYYCQQINELPYTFGQGTKVEIKRTVAAPSVFIFPPSDEQLKSGTASVVCLLNNFYPREAKVQWKVDNALQSGNSQESVTEQDSKDSTYSLSSTLTLSKADYEKHKVYACEVTHQGLSSPVTKSFNRGEC

What was measured:
human GPR20 = target: T1, human GPR20; assay: Internalization activity of humanized anti-GPR20 antibodies with Hum-ZAP in HEK293 cells stably expressing GPR20-EGFP; format: cell-based; details: antibody 0.015 to 1.27 μg/mL, Hum-ZAP 1 μg/mL, 4 days
GIST-T1/GPR20 cells = assay: Antitumor effect in subcutaneously GIST-T1/GPR20 cell-transplanted nude mouse models; format: in vivo, BALB/c nude mice
[1] = 1 mg/kg intravenously on Day 17, FIG. 31

Row | Molecule | cell proliferation-suppressive effect by antibody internalization (human GPR20) | tumor volume (GIST-T1/GPR20 cells; [1]) | tumor volume (GIST-T1/GPR20 cells; 10 mg/kg intravenously on Day 24, FIG. 30)
1 | B1 | exhibited a cell proliferation-suppressive effect by antibody internalization |  | 
2 | B2 | exhibited a cell proliferation-suppressive effect by antibody internalization |  | 
3 | B3 | exhibited a cell proliferation-suppressive effect by antibody internalization |  | 
4 | B4 |  | remarkably decreased tumor volume | 
5 | B5 |  | remarkably decreased tumor volume | 
6 | B6 |  | remarkably decreased tumor volume | 
7 | B7 |  | remarkably decreased tumor volume | remarkably decreased tumor volume
